Measurements taken from patent publication US20250215105A1, “ANTI-CD39 ANTIBODY” (BrightPath Biotherapeutics Co., Ltd., priority 2022, published 2025).

Test system: human lung cancer cell line NCI-H292
Assay: anti-tumor activity: NCI-H292 growth with stimulated PBMCs and ATP (IncuCyte)
Assay type: cell-based
Experimental: The human lung cancer cell line NCI-H292 having red fluorescent protein (RFP) was seeded on a 96-well plate and cultured overnight. The next day, after removal of the medium, IL-2 (Miltenyi, 130-097-745) at a final concentration of 30 IU as suspended in X-VIVO-15™ medium (Lonza, 04-418Q) and an anti-human CD39 antibody or isotype control antibody at a final concentration of 0.3 to 100 μg/mL were added and the mixture was incubated at 37° C. for 30 minutes. Then, PBMCs from healthy volunteers stimulated with Dynabeads™ Human T-Activator CD3/CD28 (VERITAS, DB11131) for 10 days were added at an E/T ratio of 2 and the mixture was incubated at 37° C. for 30 minutes. […] This made it possible to evaluate the anti-tumor activity of the antibody due to its ability to promote the cytotoxic activity of PBMCs.

[1] = ATP 250 μM, antibody 10 μg/ml (FIG. 32)

B1: I-394h4: anti-CD39 antibody with variable regions of I-394 of WO2018/167267, IgG4 constant region (antibody, listed as Mus musculus, V domains shown)
VH: EVQLQQSGPELVKPGASVKMSCKASGYTFTDYNMHWVKQSHGRTLEWIGYIVPLNGGSTFNQKFKGRATLTVNTSSRTAYMELRSLTSEDSAAYYCARGGTRFAYWGQGTLVTVSA
VL: DIVLTQSPASLAVSLGQRATISCRASESVDNFGVSFMYWFQQKPGQPPNLLIYGASNQGSGVPARFRGSGSGTDFSLNIHPMEADDTAMYFCQQTKEVPYTFGGGTKLEIK
modifications: IgG4 constant regions
notes: anti-CD39 antibody with variable regions of I-394 of WO2018/167267, IgG4 constant region
For B1, the “overall difference in cancer cell growth compared to isotype control” value (ATP 250 μM (FIG. 31)) was “small”, the “time after treatment at which a difference to the isotype control starts to appear” value (ATP 250 μM (FIG. 31)) was “about 50 hours” and the “overall difference in cancer cell growth compared to isotype control” value [1] was “only a slight difference”. For the same molecule, the “time after treatment at which a difference to the isotype control starts to appear” value [1] was “about 80 hours”.
